Results from PubChem BioAssay AID1645882 (National Center for Advancing Translational Sciences (NCATS), 2021).
The campaign covered roughly 16,000 compounds. About 120 (0.75%) were called active. Not shown: some 4% with an inconclusive outcome. Calls follow the shape of the dose curve; as a rule, active = well fitted inhibition curve with a large enough effect; inconclusive = small, poorly fitted or top-dose-only effect; inactive = no such curve, though single readings can be large or run the other way. Some of the results follow.

These compounds were tested against Rap guanine nucleotide exchange factor 3 (Homo sapiens) (UniProt O95398) (assay: Validation qHTS for antagonist of cAMP-regulated guanine nucleotide exchange factor 3 (EPAC1)). Details: EPAC1 Rap1B-BODIPY-GDP exchange, fluorescence; series mostly up to 150 µM; activity change, negative = inhibition: at the top concentration.
Outline: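 EPAC1 (100 nM) mixed with 250 nM RAP1B-BODIPY-GDP and 50 uM GDP; compounds in concentration series, 5 min at room temperature. Fluorescence (ex 480/em 540 nm) read every 5 min for 30 min; normalized to ATA control and DMSO.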
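Also: plate controls were DMSO for no effect and ATA control for full effect; nearly all actives have a fitted effect of over 75% in size.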

Chain of UniProt O95398 (O95398 whole entry, looked up): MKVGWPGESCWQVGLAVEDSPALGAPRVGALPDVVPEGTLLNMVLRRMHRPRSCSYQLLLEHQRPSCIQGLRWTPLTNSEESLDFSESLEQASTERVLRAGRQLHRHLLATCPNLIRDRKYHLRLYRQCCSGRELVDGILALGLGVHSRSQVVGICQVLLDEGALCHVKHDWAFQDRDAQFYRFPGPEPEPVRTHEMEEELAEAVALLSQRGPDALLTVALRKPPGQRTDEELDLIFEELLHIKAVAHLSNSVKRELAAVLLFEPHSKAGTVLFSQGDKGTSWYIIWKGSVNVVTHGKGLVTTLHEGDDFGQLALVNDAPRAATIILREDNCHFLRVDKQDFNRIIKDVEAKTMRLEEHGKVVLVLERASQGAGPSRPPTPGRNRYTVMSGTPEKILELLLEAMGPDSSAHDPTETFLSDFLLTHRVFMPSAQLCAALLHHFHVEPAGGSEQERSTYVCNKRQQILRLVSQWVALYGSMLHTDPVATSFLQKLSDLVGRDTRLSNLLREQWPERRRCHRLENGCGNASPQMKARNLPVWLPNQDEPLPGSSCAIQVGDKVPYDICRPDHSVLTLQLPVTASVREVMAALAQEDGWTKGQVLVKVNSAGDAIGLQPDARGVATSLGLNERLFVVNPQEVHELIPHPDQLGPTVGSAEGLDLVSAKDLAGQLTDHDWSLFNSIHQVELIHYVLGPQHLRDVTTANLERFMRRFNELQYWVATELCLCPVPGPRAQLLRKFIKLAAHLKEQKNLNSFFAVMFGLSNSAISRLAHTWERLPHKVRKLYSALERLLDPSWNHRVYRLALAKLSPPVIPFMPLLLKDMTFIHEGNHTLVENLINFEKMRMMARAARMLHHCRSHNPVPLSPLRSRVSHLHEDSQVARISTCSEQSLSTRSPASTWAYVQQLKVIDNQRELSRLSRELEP

Activity change, negative = inhibition, inactive:
O=c1c(-c2ccc(F)cc2)nc2cnc(N3CCNCC3)nc2n1Cc1ccc(F)cc1 4.17%
COc1ccc(NC(=O)N2CCCC3(CCN(C(=O)c4ccc(OC)cc4)CC3)C2)cc1 1.24%
N[C@@H](C(=O)O)c1ccc(C(=O)O)c(C(=O)O)c1 -4.03%
N#Cc1ccc(CN2CC[C@@]3(CCCN(C(=O)c4ccncc4)C3)C2)cc1 20.1%
O=Nc1c(-c2c(O)[nH]c3cc(Br)ccc23)[nH]c2ccccc12 -4% [at 75.8 µM]
O=C1c2ccccc2-n2c1nc1ccccc1c2=O 19.3%
O=C(NCc1ccncc1)c1cnn(-c2ncc3c(n2)-c2ccccc2CC3)c1C1CC1 12.6%
CO[C@@H]1[C@@H](OC(N)=O)[C@@H](O)[C@H](Oc2ccc3c(O)c(NC(=O)c4ccc(O)c(CC=C(C)C)c4)c(=O)oc3c2C)OC1(C)C 15.4% [at 75.8 µM]
O=C(NCO)c1cccnc1 3.68%
NC1=NCCCC1 -1.58%
O=C(c1ccncc1)N1CCC2(CCCN(c3ccccc3)C2)CC1 6.93%
O=c1c(-c2ccccc2)nc2cnc(Oc3ccccc3)nc2n1C1CC1 2.63%
O=c1cnc2cnc(Nc3ccccc3)nc2n1C[C@H]1CCCO1 6.54%
CCS(=O)(=O)N(C)[C@@H]1c2cc(C#N)ccc2OC(C)(C)[C@H]1O
Brc1c(Br)c(Br)c2n[nH]nc2c1Br -7.12% [at 75.8 µM]
Cc1ccc2[nH]nc(C(=O)N3CCOc4ccc(CN5CCc6sccc6C5)cc4C3)c2c1 9.32%
CN(C)C(=N)N=C(N)N
CN1CCC(=O)N([C@H](CN=[N+]=[N-])c2ccccc2)CC1 11.1%
O=S(O)CNc1ccc(S(=O)(=O)c2ccc(NCS(=O)O)cc2)cc1 -11.4%
N#Cc1cccc(-c2ccc3ncnc(NCc4cccnc4)c3c2)c1 15.9%
CC(C)[C@H](N)C(=O)OCCOCn1cnc2c(=O)[nH]c(N)nc21 28.1%
CC(C)(O)C#Cc1ccc(CN2CCc3nnc(CCNC(=O)c4ccco4)n3CC2)cc1 -12.6%
O=C(CCN1Cc2ccccc2OC(c2ccccc2)C1)N[C@@H]1CS(=O)(=O)C[C@H]1O (stereo partly drawn) 9.26%
CSc1nc(C(=O)N2CCc3c(cnc(C)c3CNC(=O)c3ccc4c(c3)OCO4)C2)cs1 5.75%
O=C(O)CC[C@@H](C(=O)O)N1C(=O)c2ccccc2C1=O -4.61% [at 75.8 µM]
CCN(CC)C1CCN(C(=O)c2cnn(-c3nccc(-c4ccccc4OC)n3)c2-c2ccco2)C1 (stereo not drawn) 20.3%
CCOC(=O)C[C@H]1c2cc(F)ccc2S(=O)(=O)N1c1cccc(OC)c1 12.5%
CC(=O)Oc1cccc(O)c1 19.3%
Cc1occc1C(=O)Nc1cccc(-c2nc(CNC(=O)c3ccc(N4CCCCC4)cc3)c(C)o2)c1 -4.82%
CCOC(=O)c1c[nH]c2nc(C)ccc2c1=O 24.4%
O=C1CCNCCN1[C@H](CO)c1ccccc1 2.58%
COCC(=O)Nc1cc(C(=O)N2CCCC(c3ccccc3)CC2)c2c(c1)nc(-c1ccncc1)n2C (stereo not drawn) -8.48%
Cc1noc(C)c1C(=O)N1CCC[C@@]2(CCN(Cc3nccs3)C2)C1 17.4%
CSC(N)=NCCCC(N)C(=O)O (stereo not drawn) 6.25%
CC(C)C(C)/C=C/C(C)C1CCC2C3=CCC4CC(=O)CC[C@@]4(C)C3CC[C@]21C (stereo partly drawn) 0.631%
CCCc1c(OCCCCc2nn[nH]n2)ccc(C(C)=O)c1O
COc1cccc(CN2Cc3cccc4c3[C@H](C=CC4)CC2=O)c1 -0.201%
COc1ccc(CN2CCOc3ccc(C(O)c4cccnc4)cc3C2)cc1 (stereo not drawn) 20.8%
Cc1cnc2ccccc2c1C 21.8%
CCCCCCCN1CCC(=O)N([C@H](CO)Cc2ccccc2)CC1 -4.35%
CCOc1ccc(N=C(C)Nc2ccc(OCC)cc2)cc1 10.7%
FC(F)(F)C(F)(F)C(F)(F)C(F)(F)C(F)(F)C(F)(F)C(F)(F)C(F)(F)Br 13.9%
CN1CCCC1c1cccnc1 (stereo not drawn) 10.4%
O=C(c1cnccn1)N1CCC2(CCN(Cc3cc(C(F)(F)F)cc(C(F)(F)F)c3)CC2)CC1 0.971%
CN1CCCC(n2nc(Cc3ccc(Cl)cc3)c3ccccc3c2=O)CC1 (stereo not drawn) 23.5%
CCCCCCCCN1[C@@H](CC(=O)OCC)c2ccc(C(F)(F)F)cc2S1(=O)=O -22.5%
Cc1ccc(C)c2c(C)ccnc12 20.6%
CC(C)[C@@H](COc1ccccc1)N1CCN(Cc2ccccc2)CCC1=O -0.103%
CC1=CC(=O)NS(=O)(=O)O1 9.17%
Nc1ncnc2c1ncn2[C@@H]1O[C@H](COP(=O)(O)OP(=O)(O)OP(=O)(O)OP(=O)(O)OC[C@@H]2O[C@H](n3cnc4c(N)ncnc43)[C@@H](O)[C@H]2O)[C@@H](O)[C@H]1O
COc1ccc(-n2c(CNC(=O)c3c(-c4ccccc4)noc3C)nnc2SC)cc1 18.5%
O=C(c1ccco1)N1CCC2(CC1)CCN(c1ncccn1)CC2 -6.5%
O=C(c1ccncc1)N1CCC[C@@]2(CCN(c3ncccn3)C2)C1 5.91%
COC(=O)c1cc(CNC(=O)c2ccncc2)cc(NC(=O)c2ccccc2Cl)c1 -25.5%
O=c1c(CCc2ccccc2)nc2cnc(N3CCNCC3)nc2n1-c1ccccc1 20.8%
CCCC(=O)Nc1ncnc2c1ncn2[C@@H]1O[C@@H]2COP(=O)(O)O[C@H]2[C@H]1OC(=O)CCC
COCCn1c(=O)c(-c2ccc(F)cc2)nc2cnc(Oc3cccc(Cl)c3)nc21 -10.8%
N#Cc1cccc(NC(=O)N2CC[C@@]3(CCCN(C(=O)c4ccncc4)C3)C2)c1 12.7%
O=C(c1ccncc1)N1CCC2(CCCN(c3ccccn3)C2)CC1 30.3%
COc1ccc2c(c1)-c1nc(-n3ncc(C(=O)NC(C)(C)CO)c3C3CC3)ncc1CC2 6.07%
CN(C)CCC[C@@]1(c2ccc(F)cc2)OCc2cc(C#N)ccc21
CC(=O)N[C@@H](CCC(=O)O)C(=O)O 0.0157%
COc1ccc(Oc2ncc3ncc(=O)n(Cc4ccc(F)cc4)c3n2)cc1 -2.74%
O=C[C@H](O)[C@@H](O)[C@@H](O)[C@H](O)CO 28.1%
CC(C)C[C@H](NC(=O)[C@H](CCc1ccccc1)NC(=O)CN1CCOCC1)C(=O)N[C@@H](Cc1ccccc1)C(=O)N[C@@H](CC(C)C)C(=O)[C@@]1(C)CO1 28.5%
COc1ccc(-n2c(=O)c(-c3cccs3)nc3cnc(N(C)C)nc32)cc1 19.2%
O=c1ccn([C@@H]2O[C@H](COP(=O)(O)O)[C@@H](O)[C@H]2O)c(=O)[nH]1 31%
CCNc1ncc2nc(CCc3ccccc3)c(=O)n(C)c2n1 10.4%
C=C1c2c(Cl)ccc(O)c2C(O)=C2C(=O)[C@]3(O)C(O)=C(C(N)=O)C(=O)[C@@H](N(C)C)[C@@H]3[C@@H](O)C12 (stereo partly drawn) 23.2% [at 39.6 µM]
O=C(O[C@H]1CN2CCC1CC2)N1CCc2ccccc2[C@@H]1c1ccccc1 14.4%
NC(=O)N/N=C/c1ccc([N+](=O)[O-])o1
C=C1c2cccc(O)c2C(O)=C2C(=O)[C@]3(O)C(O)=C(C(N)=O)C(=O)C(N(C)C)C3C(O)C12 (stereo partly drawn) 9.9%
Cc1c(C(=O)NCCCN2CCCC2=O)cnn1-c1ncc2c(n1)-c1ccccc1CC2 4.56%
CCNc1ncc2nc(-c3ccc(OC)cc3)c(=O)n(-c3ccc(OC)cc3)c2n1 21.3%
NCC1CCC(C(=O)Oc2ccc(CCC(=O)O)cc2)CC1 (stereo not drawn) 10.1%
c1cncc(-c2cncnc2NC2CCNCC2)c1 12.5%
CCC1(C2CCN(C(=O)c3csc(C(C)=O)c3)CC2)NC(=O)N(CCc2scnc2C)C1=O (stereo not drawn) 12.8%
CNc1ccnc(-c2ccccc2OC)n1 5.01%
Nc1nc(-c2ccccc2)c(Br)c(=O)[nH]1 -4.32%
NC(N)=N/N=C\c1c(Cl)cccc1Cl -0.786%
CCCCCCCN1CCC(=O)N(CCO)CC1 4.79%
COc1cc(-c2cccnc2)cc2c1OCCN(C(=O)Cc1csc(C)n1)C2 0.913%
CCN(CC)CCOc1ccc(/C(=C(\Cl)c2ccccc2)c2ccccc2)cc1
O[C@@H](c1ccccc1)C1CCN(CCc2ccccc2)CC1 1.6%
CC(=O)OCOC(=O)CN(CC(=O)OCOC(C)=O)c1ccccc1OCCOc1ccccc1N(CC(=O)OCOC(C)=O)CC(=O)OCOC(C)=O -11.7%
COc1ccccc1CNc1ncncc1-c1ccccc1Cl -15%
O=[N+]([O-])c1ccc2nc(CO)[nH]c2c1 6.56%
Cc1ccc(C(=O)c2cc(O)c(O)c([N+](=O)[O-])c2)cc1 4.1%
O=Nc1c(-c2c(O)[nH]c3ccccc23)[nH]c2ccccc12
Cc1cnc(-n2ncc(C(=O)NCC3CCCN(C)C3)c2C)nc1-c1cccs1 (stereo not drawn) -8.87%
COc1ccc2[nH]cc(CCNC(C)=O)c2c1
Cc1cnc(CNc2ccnc(-c3ccc(C(=O)N(C)C)cc3)n2)cn1 12.8%
C=C(C)C1Cc2c(ccc(C(=O)O)c2O)O1 (stereo not drawn) 17.7%
CC(=O)OC1CCC23CC1(C)CCC2C(C)(C)CC3OC(C)=O (stereo not drawn) 3.64%
COc1ccc(OC)c2c(C)ccnc12 13.7%
O=C(NCC1(N2CCOCC2)CCCCC1)c1cnn(-c2nccc(-c3ccco3)n2)c1C1CC1 -4.77%
O=c1c(CCc2ccccc2)nc2cnc(N3CCOCC3)nc2n1CCc1ccccc1 9.74%
CC(C)(C)C1CCC(=O)N(CCSc2ccccc2)CC1 (stereo not drawn) -15.1%
Cc1nc2cnc(OCc3ccccc3)nc2n(C)c1=O 7.58%
CC1CC2C3CCC4=CC(=O)C=C[C@]4(C)[C@@]3(Cl)C(O)C[C@]2(C)C1(OC(=O)c1ccco1)C(=O)CCl (stereo partly drawn) 4.58%
CCCCCc1ccc(-c2cn(CCc3c[nH]c4ccccc34)nn2)cc1 -7.62%
COc1ccccc1-c1nc(NCCNC(C)=O)c2ccccc2n1 10.5%
CC1(C)CC[C@]2(C(=O)O)CC[C@@]3(C)C(=CCC4[C@@]5(C)CCC(O)[C@@](C)(CO)C5CC[C@@]43C)C2C1 (stereo partly drawn) 9.35%
